# Source: the supplement of paper PMC8728848
# The other results are listed elsewhere or left out.
# Experiments:
# Experiment in all cases: glycan array binding signal (z-score within array); higher = stronger binding
# Details in all cases: glycan notation: IUPAC condensed, linker removed
# [1] = biological target: Neu5Ac(a2-6)GlcNAc(b1-4)GlcNAc(b1-4)GlcNAc
# Summary of the method: (§1)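 The binding signal is a Z-score computed within each array. Data were drawn from 3228 arrays in the Consortium for Functional Glycomics database, restricted to those with a known protein sequence. Scores were averaged over arrays of the same protein sequence at different concentrations or buffers, and over linkers, and negative values can be taken as non-binding.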
# Neu5Ac(a2-8)Neu5Ac = biological target: Neu5Ac(a2-8)Neu5Ac
# Summary of the method: as §1
# [2] = biological target: Neu5Ac(a2-8)Neu5Ac(a2-3)Gal(b1-3)GalNAc(b1-4)[Neu5Ac(a2-3)]Gal(b1-4)Glc
# Summary of the method: as §1
# [3] = biological target: Neu5Ac(a2-8)Neu5Ac(a2-3)Gal(b1-3)GalNAc(b1-4)[Neu5Ac(a2-8)Neu5Ac(a2-3)]Gal(b1-4)Glc
# Summary of the method: as §1
# [4] = biological target: Neu5Ac(a2-8)Neu5Ac(a2-3)Gal(b1-4)Glc
# Summary of the method: as §1
# [5] = biological target: Neu5Ac(a2-8)Neu5Ac(a2-3)Gal(b1-4)GlcNAc
# Summary of the method: as §1
# [6] = biological target: Neu5Ac(a2-8)Neu5Ac(a2-3)[Gal(b1-3)GalNAc(b1-4)]Gal(b1-4)Glc
# Summary of the method: as §1
# [7] = biological target: Neu5Ac(a2-8)Neu5Ac(a2-3)[GalNAc(b1-4)]Gal(b1-4)Glc
# Summary of the method: as §1
# [8] = biological target: Neu5Ac(a2-8)Neu5Ac(a2-8)Neu5Ac
# Summary of the method: as §1
# [9] = biological target: Neu5Ac(a2-8)Neu5Ac(a2-8)Neu5Ac(a2-3)Gal(b1-4)Glc
# Summary of the method: as §1
# [10] = biological target: Neu5Ac(a2-8)Neu5Ac(a2-8)Neu5Ac(a2-3)[Gal(b1-3)GalNAc(b1-4)]Gal(b1-4)Glc
# Summary of the method: as §1
# [11] = biological target: Neu5Ac(a2-8)Neu5Ac(a2-8)Neu5Ac(a2-3)[GalNAc(b1-4)]Gal(b1-4)Glc
# Summary of the method: as §1
# [12] = biological target: Neu5Ac(a2-8)Neu5Ac(a2-8)Neu5Ac(a2-8)Neu5Ac(a2-3)[GalNAc(b1-4)]Gal(b1-4)Glc
# Summary of the method: as §1
# [13] = biological target: Neu5Ac(a2-8)Neu5Gc(a2-3)Gal(b1-4)GlcNAc
# Summary of the method: as §1
# [14] = biological target: Neu5Ac(b2-6)Gal(b1-4)GlcNAc
# Summary of the method: as §1
# Neu5Ac(b2-6)GalNAc = biological target: Neu5Ac(b2-6)GalNAc
# Summary of the method: as §1
# [15] = biological target: Neu5Ac9Ac(a2-3)Gal(b1-3)GlcNAc
# Summary of the method: as §1
# [16] = biological target: Neu5Ac9Ac(a2-3)Gal(b1-4)GlcNAc
# Summary of the method: as §1
# [17] = biological target: Neu5Ac9Ac(a2-6)Gal(b1-4)GlcNAc
# Summary of the method: as §1
# [18] = biological target: Neu5Gc(a2-3)Gal(b1-3)GlcNAc
# Summary of the method: as §1
# [19] = biological target: Neu5Gc(a2-3)Gal(b1-3)[Fuc(a1-4)]GlcNAc
# Summary of the method: as §1
# Neu5Gc(a2-3)Gal(b1-4)Glc = biological target: Neu5Gc(a2-3)Gal(b1-4)Glc
# Summary of the method: as §1
# [20] = biological target: Neu5Gc(a2-3)Gal(b1-4)GlcNAc
# Summary of the method: as §1
# [21] = biological target: Neu5Gc(a2-3)Gal(b1-4)GlcNAc(b1-3)Gal(b1-4)GlcNAc(b1-2)Man(a1-3)[Neu5Gc(a2-3)Gal(b1-4)GlcNAc(b1-3)Gal(b1-4)GlcNAc(b1-2)Man(a1-6)]Man(b1-4)GlcNAc(b1-4)GlcNAc
# Summary of the method: as §1
# [22] = biological target: Neu5Gc(a2-3)Gal(b1-4)[Fuc(a1-3)]GlcNAc
# Summary of the method: as §1
# [23] = biological target: Neu5Gc(a2-6)Gal(b1-4)GlcNAc
# Summary of the method: as §1
# Neu5Gc(a2-6)GalNAc = biological target: Neu5Gc(a2-6)GalNAc
# Summary of the method: as §1
# [24] = biological target: Neu5Gc(a2-8)Neu5Ac(a2-3)Gal(b1-4)GlcNAc
# Summary of the method: as §1
# [25] = biological target: Neu5Gc(a2-8)Neu5Gc(a2-3)Gal(b1-4)GlcNAc
# Summary of the method: as §1
# [26] = biological target: Neu5Gc(a2-8)Neu5Gc(a2-3)Gal(b1-4)GlcNAc(b1-3)Gal(b1-4)GlcNAc
# Summary of the method: as §1
# [27] = biological target: Neu5Gc(a2-8)Neu5Gc(a2-6)Gal(b1-4)GlcNAc
# Summary of the method: as §1
# [28] = biological target: Neu5Gc(b2-6)Gal(b1-4)GlcNAc
# Summary of the method: as §1
binder,measurement,setting,value
Epa13 (Candida glabrata) (protein) MGSSHHHHHHSSGLVPRGSHMASDSSENGYAHGCSPSIRAKLKPGLSMEIYSYALRPTDDHCWDSAYLDPMFPRTGYLTHKLLGKAEGIIGPLNFLAKNPACIPAVSTLPLAFHFPKPFTITNFTMLLYGYLSPKKTGKYTFKLLADDLLLMNFGADNAFDCCSHDATKDNIGEYVAYSVWPGVNKNVTVYLESGIYYPLRLFFNNRDAIAQLDFAYYFNDSPIRQTDFSGMFFSIPDSVKCPANI,glycan array binding signal (z-score),[1],-0.375
same,glycan array binding signal (z-score),Neu5Ac(a2-8)Neu5Ac,0.117
same,glycan array binding signal (z-score),[2],-0.033
same,glycan array binding signal (z-score),[3],0.177
same,glycan array binding signal (z-score),[4],-0.414
same,glycan array binding signal (z-score),[5],-0.449
same,glycan array binding signal (z-score),[6],-0.07
same,glycan array binding signal (z-score),[7],-0.273
same,glycan array binding signal (z-score),[8],0.009
same,glycan array binding signal (z-score),[9],0.23
same,glycan array binding signal (z-score),[10],-0.388
same,glycan array binding signal (z-score),[11],-0.219
same,glycan array binding signal (z-score),[12],-0.021
same,glycan array binding signal (z-score),[13],-0.482
same,glycan array binding signal (z-score),[14],-0.26
same,glycan array binding signal (z-score),Neu5Ac(b2-6)GalNAc,-0.624
same,glycan array binding signal (z-score),[15],-0.424
same,glycan array binding signal (z-score),[16],-0.359
same,glycan array binding signal (z-score),[17],-0.378
same,glycan array binding signal (z-score),[18],-0.125
same,glycan array binding signal (z-score),[19],-0.37
same,glycan array binding signal (z-score),Neu5Gc(a2-3)Gal(b1-4)Glc,0.553
same,glycan array binding signal (z-score),[20],-0.188
same,glycan array binding signal (z-score),[21],-0.434
same,glycan array binding signal (z-score),[22],-0.285
same,glycan array binding signal (z-score),[23],-0.29
same,glycan array binding signal (z-score),Neu5Gc(a2-6)GalNAc,-0.571
same,glycan array binding signal (z-score),[24],0.122
same,glycan array binding signal (z-score),[25],-0.037
same,glycan array binding signal (z-score),[26],-0.46
same,glycan array binding signal (z-score),[27],-0.199
same,glycan array binding signal (z-score),[28],0.559
